Test results from PMC4336329 (PLoS ONE, 2015).
In all, about 310,000 compounds went through this assay and about 2,200 (0.71%) showed an effect of 50% or more. Effects have a minus sign here. The list shows a part of the results.

Molecular target: human ether-à-go-go-related gene (hERG) potassium channel (human, UniProt Q12809)
Assay: primary screen, population patch clamp on CHO cells stably expressing hERG

human ether-à-go-go-related gene (hERG) potassium channel, sequence (Q12809 whole entry, looked up): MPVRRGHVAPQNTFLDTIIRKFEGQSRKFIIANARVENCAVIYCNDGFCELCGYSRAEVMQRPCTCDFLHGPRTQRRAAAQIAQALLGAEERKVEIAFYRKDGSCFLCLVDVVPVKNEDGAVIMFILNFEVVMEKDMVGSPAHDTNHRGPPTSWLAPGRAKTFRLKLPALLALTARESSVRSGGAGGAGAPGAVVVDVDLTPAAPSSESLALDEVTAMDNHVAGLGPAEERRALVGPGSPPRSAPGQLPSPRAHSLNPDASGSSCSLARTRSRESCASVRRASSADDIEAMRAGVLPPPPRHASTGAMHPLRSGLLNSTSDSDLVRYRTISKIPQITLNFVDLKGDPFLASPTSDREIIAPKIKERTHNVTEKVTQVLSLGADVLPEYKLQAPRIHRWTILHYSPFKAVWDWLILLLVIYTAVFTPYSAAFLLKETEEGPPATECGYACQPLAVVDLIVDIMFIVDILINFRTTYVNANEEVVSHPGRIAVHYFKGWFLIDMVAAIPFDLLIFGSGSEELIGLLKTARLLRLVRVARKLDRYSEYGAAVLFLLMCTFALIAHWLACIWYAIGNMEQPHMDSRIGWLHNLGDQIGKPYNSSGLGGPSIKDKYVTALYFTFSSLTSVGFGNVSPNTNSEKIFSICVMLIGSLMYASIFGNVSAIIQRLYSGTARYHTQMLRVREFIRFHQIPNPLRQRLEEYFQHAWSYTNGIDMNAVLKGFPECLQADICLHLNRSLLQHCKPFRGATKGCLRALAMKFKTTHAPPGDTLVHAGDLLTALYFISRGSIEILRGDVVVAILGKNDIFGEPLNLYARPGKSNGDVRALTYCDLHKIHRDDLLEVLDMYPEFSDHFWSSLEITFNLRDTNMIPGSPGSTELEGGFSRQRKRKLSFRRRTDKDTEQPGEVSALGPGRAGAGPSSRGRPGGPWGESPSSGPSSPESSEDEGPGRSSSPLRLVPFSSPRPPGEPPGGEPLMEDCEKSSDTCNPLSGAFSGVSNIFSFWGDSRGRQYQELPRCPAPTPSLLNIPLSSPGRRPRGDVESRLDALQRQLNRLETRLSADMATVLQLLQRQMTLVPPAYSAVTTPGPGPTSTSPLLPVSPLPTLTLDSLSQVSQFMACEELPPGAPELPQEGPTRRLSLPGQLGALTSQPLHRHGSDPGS

SMILES | hERG current change (%, negative = inhibition) at 1uM [%]
Brc1ccc(-c2cn3c(n2)CCc2ccc4cccnc4c2-3)cc1 | 10.5
O=C(NCCNCc1cccs1)c1ccccc1F | 4.36
CCOC(=O)c1ccc(-n2c(C)nc3c(cnn3-c3ccc(Cl)cc3)c2=O)cc1 | -9.73
COCCNC(=O)NC12CC3(C)CC(C)(CC(C)(C3)C1)C2 | 12.3
CCCOc1ccc(C(=O)c2ccccc2C(=O)O)cc1OCCC | 9.12
OCCC1CN(Cc2ccc(-c3ccco3)cc2)CCN1Cc1ccsc1 (stereo not drawn) | 2.41
CCOC(=O)C1=C(COC(=O)c2cccc(Br)c2)NC(=O)NC1C (stereo not drawn) | 12.4
COc1ccc(NC(=O)COc2ccc(S(=O)(=O)N3CCOCC3)cc2C)cc1OC | 14.8
COc1ccc(C(=O)O)cc1S(=O)(=O)N(CCc1ccccc1)Cc1ccccc1 | 6.14
O=C(Nc1ccccc1N1CCN(C(=O)c2ccccc2)CC1)c1ccc2c(c1)OCO2 | -10.6
CN1/C(=C/C=N/n2cnnc2)C(C)(C)c2ccccc21 | 7.04
CCN(CC(=O)Nc1ccc(NC(C)=O)cc1)C(=O)/C=C/c1ccc(C)o1 | 1.55
COc1ccccc1CCC(=O)N(C)CC(=O)Nc1ccc(Cl)c(C(F)(F)F)c1 | 11.5
O=[N+]([O-])c1ccc(Oc2ccc(F)cc2)c2ccncc12 | 3.76
COC(=O)c1c(NC(=O)CSc2ncn[nH]2)sc(C)c1C | 11.2
Nc1[nH]ncc1S(=O)(=O)c1ccccc1 | 10.2
CC(/C=C1\SC(=S)N(NC(=O)c2ccncc2)C1=O)=C\c1ccccc1 | 16.1
O=C1NCCCC1C(=O)N/N=C/c1ccc(Cl)cc1 (stereo not drawn) | -0.193
Cc1ccc(C(C(=O)NCCc2ccccc2)N(C(=O)c2csnn2)C2CC2)o1 (stereo not drawn) | -2.18
COc1ccc(CCNC(=O)Cc2cc(OC)c(OC)cc2Br)cc1OC | 5.04
COC(=O)c1cccc(-n2c(CCC(=O)O)ccc2-c2cccs2)c1 | 13.3
CCCCOC(=O)c1ccc(NC(=O)c2c(N)n(C)c(=O)[nH]c2=O)cc1 | 17.4

SMILES | hERG current change (%, negative = inhibition) at 1uM [%]
Cc1ccccc1NC(=O)CSc1ccc(-c2ccc(-n3cccn3)cc2)nn1 | 9.55
Cc1ccc(CN(CC(=O)NC(C)(C)C)C(=O)CNC(=O)c2cccs2)cc1 | 11.4
O=C(CCc1ccccc1)NNC(=O)c1ccccc1Cl | 15.4
Nc1nc2c(nc(Br)n2[C@@H]2O[C@@H]3COP(=O)([O-])O[C@H]3[C@H]2O)c(=O)[nH]1.[Na+] | 3.85
CCN(CC)c1ccc(/C=N/Nc2ccc(C)cc2)c(O)c1.Cl | 14.8
CCOC(=O)C1=C(C)NC2=C(C(=O)C(C(=O)OCC)C(c3ccco3)C2)C1c1ccccn1 (stereo not drawn) | 1.39
COC(=O)c1ccc(CNC(=O)c2ccc(OC)c(S(=O)(=O)NC3CCCC3)c2)cc1 | 6.45
CCCCC(NC(=O)COc1cc2c(c3oc(=O)cc(C)c13)CCC(C)(C)O2)C(=O)O (stereo not drawn) | 6.56
Cc1cc2c(cc1S(=O)(=O)N(C)c1ccccc1)n(C)c(=O)n2C | 6.81
Cc1ccc(S(=O)(=O)N2CCN(c3nc4ccccc4nc3-n3nc(C)cc3C)CC2)cc1 | 9.31
COc1ccc(NC(=O)c2c(C)cc(=O)oc2C)c(OC)c1 | 19.4
CCc1ccc(NC(=O)C2=CC=CN3CCS(=O)(=O)N=C23)cc1 | -4.43
CC1CCc2c(sc3ncnc(N4CCOCC4)c23)C1 (stereo not drawn) | -0.0507
CCOC(CCn1c(SCC(=O)Nc2cc(C)on2)nc2ccccc2c1=O)OCC | 12.9
COc1ccc(C(=O)NCC(=O)NCc2cc(=O)n(C)c(=O)n2C)cc1 | 17
COc1ccc(CNC(=O)C2CCC(=O)N2C(C)C)c(OC)c1 (stereo not drawn) | 10.3
O=C(CCn1c(=O)[nH]c2ccsc2c1=O)N(CCc1ccccc1)Cc1ccccc1 | -7.33
CCC(CO)n1cnnc1-c1ccncc1 (stereo not drawn) | 20.4
COc1ccc(OC)c(CCNC(=O)C(C)n2nc(C)c3c(C)n(-c4ccc(C)cc4)nc3c2=O)c1 (stereo not drawn) | -7.89
S=C1NC[C@H](Cc2cccc3ccccc23)N1CC1CCCCC1 | 10.6
Cc1nn(-c2ccccc2)nc1CNC(=O)C1CCC1 | 7.23
O=S(=O)(c1cccs1)N1CN(C2CCCCC2)c2nc3ccccc3nc21 | 0.376

SMILES | hERG current change (%, negative = inhibition) at 1uM [%]
Cc1ccc(SCc2nnc(N)s2)cc1 | -10.5
CC(=O)NCCOC(=O)Nc1ccncc1 | 7.72
O=C1/C(=C/C=C/c2ccco2)SC(=S)N1NS(=O)(=O)c1ccccc1 | 12.1
Cc1cc(C(=O)OCC(=O)N2CC(C)OC(C)C2)c(C)n1-c1ccccc1 (stereo not drawn) | 6.27
COC(=O)C1C(c2ccc(OC)cc2)NC(=O)NC1(O)C(F)(F)Cl (stereo not drawn) | 7.6
CC(=O)c1ccc(NC(=O)C2CCCN(S(=O)(=O)c3cccc4nonc34)C2)cc1 (stereo not drawn) | 10.9
c1ccc(-c2noc(CN3CCN(C(c4ccccc4)c4ccccc4)CC3)n2)cc1 | 2.9
CC(=O)NCc1nc2ccccc2n1C(C)C | 17.6
Cc1cc([N+](=O)[O-])nn1CC(=O)NNC(=S)Nc1ccc(Cl)cc1 | 11.6
CCc1nnc(SCC(=O)Nc2ccccc2Cl)nc1CC | 8.7
CC1CC(C)CN(C(=O)c2ccc(C(=O)c3ccccc3)cc2)C1 (stereo not drawn) | -1.23
CCC(=O)OCCn1c(=O)c2cc3c(=O)n(CCOC(=O)CC)c(=O)c3cc2c1=O | -11.5
S=C(NCCc1ccccc1)N1CCN(Cc2ccc(Cl)c(Cl)c2)CC1 | 7.79
Cc1ccc(N2C(=O)CC(c3c[nH]c4ccccc34)C2=O)cc1 (stereo not drawn) | 9.12
CN1CC=C2C(C#N)=C(N)C(C#N)(C#N)C(CCc3ccccc3)C2C1 (stereo not drawn) | 8.6
CCOc1c(OC)cc(C2C(C#N)=C(N)Oc3n[nH]c(-c4ccncc4)c32)cc1OC (stereo not drawn) | 1.53
COc1cc(-c2noc(C)c2C#CC2(N)CCCCC2)cc(OC)c1OC | 9.6
CCOC(=O)c1ccc(NC(=O)c2nc[nH]c2C(=O)N[C@@H](C)C(=O)OC(C)(C)C)cc1 | 17.5
O=C(Nc1cccc(C(=O)NC2CC2)c1)c1ccc(Cl)c(S(=O)(=O)N2CCOCC2)c1 | 6.55
Cc1nn(CCCC(=O)Nc2ccc(Br)cc2F)c(C)c1[N+](=O)[O-] | 3.02
O=C1NC2(CCCCC2)N=C1c1ccccc1 | 12.6
COc1ccc(NS(=O)(=O)c2nnc(NC(=O)c3ccccc3F)s2)cc1 | 8.19

SMILES | hERG current change (%, negative = inhibition) at 1uM [%]
COC(=O)c1ccc(NC(=O)CSc2nc3cccnc3n2C)cc1 | 19.8
COc1cc2nc(N(CCN(C)C)C(=O)c3ccc(S(=O)(=O)N(C)CC4CCCO4)cc3)sc2cc1OC.Cl (stereo not drawn) | 9.05
O=C(COc1cccc2ccccc12)N1c2ccccc2CCc2ccccc21 | 0.892
CC(=O)c1ccc(NC(=O)c2noc(C)c2[N+](=O)[O-])cc1 | 14.8
Cc1onc(-c2c(Cl)cccc2Cl)c1C(=O)N1CCN(c2ccccc2)CC1 | 8.86
O=C(CCS(=O)(=O)c1ccccc1)Nc1cccc2c1C(=O)NC2=O | 9.71
O=C(CSc1ccccn1)NCc1ccc2c(c1)OCO2 | 1.19
CCn1c(SCC(=O)NC2CC2)nnc1C(C)Oc1ccccc1 (stereo not drawn) | 1.29
Cc1ccc(CCNC(=O)C2CCN(S(=O)(=O)c3ccc4c(c3)NC(=O)CO4)CC2)cc1 | 8.71
CC(C)C(=O)NCc1cc(-c2ccc(Cl)cc2)no1 | 9.15
COc1ccc(NC(=O)NNC(=O)COc2ccc3cc(Br)ccc3c2)cc1 | 16.4
O=C(O)c1ccc(N2CCCCCC2)c(N2C(=O)c3ccccc3C2=O)c1 | 0.27
CCN(CC)S(=O)(=O)c1cc(C(=O)N(C)CC(=O)Nc2ccc(Cl)cc2)ccc1Cl | -1.15
O=C(c1cccc(S(=O)(=O)NCCOc2ccccc2)c1)N1CCN(c2ncccn2)CC1 | -9.35
CCSc1nnc(NC(=O)Cn2cnc3ccccc3c2=O)s1 | 10
O=C(CN1C(=O)NC2(CCCCC2)C1=O)Nc1ccc2c(c1)OCCCO2 | 7.13
CCN1CC(=O)Nc2cc(S(=O)(=O)N3CCOCC3)ccc21 | 7.14
CCOc1ccc(C(=O)CCC(=O)Nc2cc(C)ccn2)cc1 | 13.7
Cc1[nH][nH]c(=O)c1N=Nc1ccccc1Cl | 17
Cc1ccc(N(CC(=O)NC2CCCC2)C(=O)CNC(=O)c2cccs2)cc1C | 11.9
CCOC(=O)c1sc(NC(=O)Nc2ccccc2)cc1C | 4
